Results taken from PubChem BioAssay AID1508623 (National Center for Advancing Translational Sciences (NCATS), 2021).
The whole screen tested about 48,000 compounds, of which about 450 (0.94%) were called active. About 19% were inconclusive and are not listed. The call rests on the fitted dose curve; in most records, active means well fitted inhibition curve with a large enough effect; inconclusive means small, poorly fitted or top-dose-only effect; inactive means no such curve, though single readings can be large or run the other way. The list shows a part of the results.

Assay: Primary qHTS for Identification of Small Molecule Inhibitors of Huntingtin Promoter Activity; further: nearly all actives have a fitted effect of over 50% in size
Conditions: HEK293 HTT promoter firefly luciferase reporter (activity 0% = vehicle and -100% = no light), 24 h; series mostly up to 57.5 µM; activity change, negative = inhibition: at the top concentration
Outline: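 Quantitative HTS used concentration series of up to 57.5 uM final on HEK293 luciferase reporter cells, 24 h at 37 degrees C. Readout was Dual-Glo firefly luminescence.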

Activity change, negative = inhibition, inactive:
CCCc1nnc(NC(=O)Nc2ccccc2Cl)s1 47.5%, CCOc1ccc(OCC)c(NC(=O)C2CCCN(S(=O)(=O)c3cc(Br)cc4c3N(C(=O)CC)CC4)C2)c1 (centres undefined) 4.15%, Cc1nc2nc(C)c(NS(=O)(=O)c3ccc(CC(C)C)cc3)c(=O)n2[nH]1 -16.3%, Cc1nn(C(=O)c2c(F)cccc2F)c(C)c1S(=O)(=O)N1CCCCCC1 -5.58%, CCn1c(CN2CCOCC2)nc2cc(NC(=O)c3cccc([N+](=O)[O-])c3)ccc21 -10.4%, COc1ccc(NC(=O)Cn2cc(C(=O)c3ccccc3OC)c(=O)c3ccc(C)nc32)cc1OC -20.9%, Cn1c(=O)c2c(-c3ccccc3)n(CCCO)cc2n(C)c1=O -6.61%, CC(=O)Nc1nnc2n1CCS2 -8.88%, N#Cc1ccc(Oc2ccc3c(c2)COB3O)cc1 -0.695%, Cc1ccc(CN2CCC(CNC(=O)Nc3ccc(C)c(C)c3)C2)cc1 (centres undefined) -21.5%, Cc1ccc(C)c(NC(=O)/C(C#N)=C/c2ccc(C(C)C)cc2)c1 -19.4%, COc1ccc(C)cc1NC(=O)c1oc2ccc(S(=O)(=O)N3CCC4(CC3)OCCO4)cc2c1C -2.01%, CC(C)N(C(=O)Cn1cc(SCC(=O)Nc2ccccc2C(F)(F)F)c2ccccc21)C(C)C -16.2%, CCCCc1ccc2nc(NC(=O)OC)[nH]c2c1, CC(N)C12CC3CC(CC(C3)C1)C2 (centres undefined), CCOc1ccc(C2C(C(=O)Nc3ccccc3C)=C(C)Nc3nnnn32)cc1 (centres undefined) -13%, Cn1c(=O)c2c(c3ccccc31)OC(=O)CC2c1cccc(Cl)c1 (centres undefined) -1.43%, COc1ccccc1/C=C/c1nc(C#N)c(NCC(C)C)o1 24.3%, COc1cc(NC(=O)CN2Cc3ccccc3C2=O)cc(OC)c1OC -8.79%, CCOCCn1cnc2sc(C(=O)Nc3ccccc3C(=O)OC)c(C)c2c1=O -13.8% [at 11.5 µM], CCOc1cccc(CC(=O)N2CCc3c([nH]c4ccccc34)C2c2ccc(SC)cc2)c1OCC (centres undefined) -13.6%, Cc1c(C(=O)NCCO)[n+](=O)c2ccccc2n1[O-] 7.91%, CCOc1ccc(NC(=O)Cn2nc(Cc3ccncc3)c3ccccc3c2=O)cc1 -21.8%, CCCN(CCC)C(=O)c1nn(C)c2c1CSc1ccc(C)cc1-2 -15.1%, CC(C)Cn1c(=O)c2ccccc2n2c(CCC(=O)Nc3ccc(F)cc3)nnc12 -13.6%, COc1ccc(-n2ccnc(NCc3ccccc3Cl)c2=O)cc1OC -3.53%, COc1ccc(C(=O)c2oc3ccccc3c2NC(=O)c2cccc(OC)c2)cc1 -7.02%, CCN(CC)CCOC(=O)c1ccc(NC(=O)c2cc3c(s2)-c2ccccc2OC3)cc1 -8.9%, COc1ccc(CNC(=O)c2sc3nc4n(c(=O)c3c2C)CCCCC4)cc1 1.33%
